Hit rate of the full screen: of about 420,000 compounds, about 64,000 (15%) were called active. This list was built around the results that the source calls inconclusive (neither active nor inactive); the mix of calls is not that of the screen. Calls come from the whole dose curve; as a rule, active = well fitted inhibition curve with a large enough effect; inconclusive = small, poorly fitted or top-dose-only effect; inactive = flat fitted curve, though single readings scatter. No potency is given beside an inconclusive call; the fits are too rough.
Assay: qHTS for Inhibitors of human tyrosyl-DNA phosphodiesterase 1 (TDP1): qHTS in cells in absence of CPT; note: nearly all actives have a fitted effect of over 55% in size
Conditions: DT40 Tdp1-/- hTDP1 cells, no CPT, ATP luminescence, 48 h; activity change, negative = growth inhibition: at 46.2 µM (top of the series) unless noted
Outline: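 Chicken DT40 Tdp1-/- cells stably complemented with human TDP1 were seeded at 400 cells/well with DMSO in place of 20 nM camptothecin. After compound pinning, cells grew at least 48 hr at 37 °C; viability read by CellTiter-Glo luminescence.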
% is set by controls: 0 for no effect and ±100 for the full control effect; potency is the fitted concentration of half-maximal effect; tags give direction and shape of the fitted curve.

SMILES | Potency | activity change, negative = growth inhibition
c1ccc(N(c2ccccc2)c2nc(-n3ccnc3)nc(-n3ccnc3)n2)cc1 | inconclusive [inhibitor, partial curve] | –
C#CCN1C(=O)C(O)(CC(=O)/C=C/c2ccco2)c2ccccc21 (centres undefined) | active: 3.66 µM | –
COC(=O)CN(n1cnnc1)S(=O)(=O)c1ccccc1 | – | inactive: -17.3%
COc1cccc(NC(=O)COc2ccccc2C(=O)Nc2ccccc2)c1 | inconclusive [inhibitor, partial curve] | –
CCCCn1cnc2c(SCc3cccc(F)c3)nc(N)nc21 | inconclusive [inhibitor, single point] | –
O=C(NCCCN1CCCC1=O)c1cccc(S(=O)(=O)NCc2ccccc2)c1 | – | inactive: 12.8%
CCOC(=O)c1c(-c2ccco2)csc1N | – | inactive: 7.66%
Cc1ccc(-c2ccc(OCC(=O)N3CCOCC3)cc2)cc1 | inconclusive [inhibitor, partial curve] | –
COc1ccc(C(=O)NCCSCc2ccccc2Cl)cc1OC | inconclusive [inhibitor, single point] | –
COc1cccc(Cn2cnc3c(NS(=O)(=O)c4cccc(Cl)c4Cl)c(C)c(C)cc32)c1 | active: 23.1 µM | –
CCOc1ccc(S(=O)(=O)N2CCCCC2)cc1NC(=O)C1CSC2(C)CCC(=O)N12 (centres undefined) | inconclusive [inhibitor, partial curve] | –
C=CCN(CC(=O)Nc1c(C)cccc1CC)C(=O)SCCC | inconclusive [inhibitor, partial curve] | –
COc1ccc(N/N=C(/C)c2cnnc(-c3ccccc3)n2)cc1 | inconclusive [inhibitor, partial curve, poor fit] | –
c1ccc2c(C3OCC4(CCCCC4)CO3)cccc2c1 | inconclusive [inhibitor, single point] | –
COc1cc(NC(=O)CC2C(=O)N(c3cccc(C)c3)C(=O)N2Cc2ccco2)cc(OC)c1 (centres undefined) | active: 23.1 µM | –
Clc1ccc(OCCCc2nc(-c3cccnc3)no2)c(Cl)c1 | – | inconclusive: -33% [inhibitor]
COc1ccc(S(=O)(=O)c2c(Nc3c(C)cccc3C)sc(C(=O)c3ccc4c(c3)OCO4)c2N)cc1 | active: 2.91 µM | –
N#CCc1ccc(NC(=O)Nc2cccc3ccccc23)cc1 | inconclusive [inhibitor, partial curve] | –
Cc1ccc(N(C)S(=O)(=O)c2ccc3c(c2)NC(=O)C(C)S3)cc1 (centres undefined) | – | inactive: -13.7%
COc1ccc(CN(C)c2ccc(-c3nc(-c4ccccc4)no3)cc2[N+](=O)[O-])cc1 | inconclusive [inhibitor, single point] | –
O=C(CCn1c(=O)c2sccc2n(CC(=O)OCc2ccccc2)c1=O)NCc1ccccc1 | – | inconclusive: -35.5% [inhibitor]
CCCCN1C2=C(C(=O)CC(C)(C)C2)C(c2ccccc2)C2=C1c1ccccc1C2=O (centres undefined) | active: 16.4 µM | –

SMILES | Potency | activity change, negative = growth inhibition
O=C(NC(=S)NN1CCOCC1)c1cc(Br)ccc1Cl | inconclusive [inhibitor, single point] | –
CC1CCCN(c2ccc(C(=O)NCCc3ccccc3)cn2)C1 (centres undefined) | inconclusive [inhibitor, single point] | –
CCOC(=O)c1c(C)n(C)c2ccc(OC)c(NC(=O)CN3CCC4(CC3)OCCO4)c12 | – | inconclusive: -30.5% [inhibitor]
Cn1c(-[n+]2c(-c3ccccc3)cc(-c3ccccc3)cc2-c2ccccc2)nc2cc([N+](=O)[O-])ccc21 | inconclusive [inhibitor, single point] | –
CCCC(CCC)=NNc1ccc(S(=O)(=O)Nc2ccccc2OC)cc1[N+](=O)[O-] | inconclusive [inhibitor, single point] | –
COc1ccc([N+](=O)[O-])cc1C1NN=C(c2cccc3ccccc23)S1 (centres undefined) | inconclusive [inhibitor, single point] | –
Cn1ccc2c(-c3ccc(C(N)=O)cc3)cc3c(c21)C1CCC3C1 (centres undefined) | inconclusive [inhibitor, single point] | –
COCCn1c(SCc2cccc([N+](=O)[O-])c2)nc2ccccc2c1=O | inconclusive [inhibitor, single point] | –
CCC(CC)C(=O)Nc1ccc2nc(SCc3ccccc3)sc2c1 | active: 16.4 µM | –
CCOc1ccccc1NC(=O)c1ccc2nc[nH]c2c1 | – | inactive: -24.8%
CC(C)(C)c1cc(NC(=O)C2(C)CCN2C(=O)C2(c3ccccc3)CC2)no1 (centres undefined) | active: 20.6 µM | –
COC(=O)c1c(NC(=O)/C=C/C(=O)O)sc(Cc2ccccc2)c1C | inconclusive [inhibitor, single point] | –
COc1cnc(-c2ccccc2)c(-c2ccccc2)n1 | inconclusive [inhibitor, single point] | –
CC(C)Sc1nc(N2CCOCC2)c2c(c1C#N)CC(C)(C)SC2 | inconclusive [inhibitor, partial curve] | –
CC(=O)Nc1c(-c2cc(=O)oc3cc(C)ccc23)oc2ccccc12 | inconclusive [inhibitor, single point] | –
Cc1cc(C)c(C)c(S(=O)(=O)N2CCN(CC(=O)NC(=O)NCc3ccccc3)CC2)c1C | inconclusive [inhibitor, single point] | –
O=C(COC(=O)Cc1n[nH]c(=O)c2ccccc12)Nc1ccc(Cl)cn1 | – | inactive: 2.42%
Cn1c(C(c2cc3ccccc3n2C)c2cc3ccccc3n2C)cc2ccccc21 | active: 3.55 µM | –
CC(=O)Nc1ccc(CN2C(=O)C(Cc3ccccc3)ON=C2c2ncccc2C)cc1 (centres undefined) | inconclusive [inhibitor, single point] | –
O=C(CSC(=S)N1CCOCC1)Nc1ccc(S(=O)(=O)Nc2ncccn2)cc1 | – | inactive: 29%
CCN1C(=O)CC(N2CCN(c3ccc(C(=O)c4ccncc4)cc3)CC2)C1=O (centres undefined) | – | inactive: -13.1%
O=C1ON=C(c2ccccc2)/C1=C/c1ccc(O)c(O)c1 | inconclusive [inhibitor, single point] | –

From PubChem BioAssay AID686978 (National Center for Advancing Translational Sciences (NCATS), 2013)
